# Results published in PubChem BioAssay AID1671188 (National Center for Advancing Translational Sciences (NCATS), 2021).
# In all, about 100,000 compounds went through this assay and about 250 (0.25%) were called active. Inconclusive means that the source gave no clear call. Such entries were picked first, then a sample of the others. The call rests on the fitted dose curve; in most records, active means well fitted inhibition curve with a large enough effect; inconclusive means small, poorly fitted or top-dose-only effect; inactive means flat fitted curve, though single readings scatter. Potencies of inconclusive entries are left out as doubtful fits.
# Target: Alanine aminotransferase 2 (Homo sapiens) (UniProt Q8TD30)
# Assay: Primary qHTS assay for inhibitors of Glutamate pyruvate transaminase 2 (GPT2); further: nearly all actives have a fitted effect of over 60% in size
# Settings: Recombinant GPT2, coupled pyruvate oxidase/HRP Amplex Red fluorescence; series mostly up to 57.7 µM
# Experimental: Assay Provider: Zhenghe John Wang Ph.D.
# Case Western Reserve University, Cleveland OH
# Glutamate pyruvate transaminase 2 (GPT2) catalyzes the reversible transamination of glutamate and pyruvate to provide a-ketoglutarate and alanine. We have optimized an assay for GPT2 enzymatic activity that couples pyruvate formation to detection of fluorescence using an established pyruvate oxidase/horseradish peroxidase / Amplex Red system.
# Screening conditions were 250uM a-KG, 2mM L-alanine, and 10ng/uL GPT2 in […] of solution; 10uL of Amplex reaction mix (outlined below) were added so that final concentrations of Amplex reagents in 50uL were 0.2mM ThPP, 0.2U/mL PO and HRP, and 50uM Amplex.
# NOTE: The volume of GPT2 in the system depends on the activity of it. The activity is different every batch. You need to test the activity before the assay. For full plate assay with automation, plate 20uL of GPT2 buffer to pin into, then add 10uL of GPT2 dilution followed immediately by 10uL of substrate dilution. 2 Columns of the plate were devoted to GPT2 buffer ([…] PH7.5, 0.0001% Tween) + 50uM AOA (known GPT2 inhibitor) to serve as a positive control. Complete the assay as normal. Amplex-red buffer: […] PH7.5, 1 mM EDTA, 1 mM MgCl2.
# 1. Combine a-KG and L-alanine at desired concentrations and incubate for at least 10 minutes at 37C. Stocks of L-alanine and a-KG are diluted in distilled water. However, the stocks were diluted in GPT2 buffer for the assay.
# 2. Prepare GPT2 dilution at the desired concentration in GPT2 buffer.
# 3. Plate 40uL of GPT2 dilution with 40uL of substrate dilution and let incubate for 30 minutes at room temperature.
# 4. Add 20uL of Amplex reaction mix prepared as follows: 1.5uL 200U/mL Horseradish Peroxidase, 200mM Thiamine Pyrophosphate, 200U/mL Pyruvate Oxidase; 7.5uL 10mM Amplex Red; 288uL Amplex Buffer.
# 5. Incubate for 30 minutes at room temperature in the dark, then image using AM_Amplex_Fluorescence on plate reader nearest the window.
# Potency means the concentration at half of the fitted maximal effect; tags describe the fitted curve by direction and shape.
# Sequence of UniProt Q8TD30 (Q8TD30 whole entry, looked up): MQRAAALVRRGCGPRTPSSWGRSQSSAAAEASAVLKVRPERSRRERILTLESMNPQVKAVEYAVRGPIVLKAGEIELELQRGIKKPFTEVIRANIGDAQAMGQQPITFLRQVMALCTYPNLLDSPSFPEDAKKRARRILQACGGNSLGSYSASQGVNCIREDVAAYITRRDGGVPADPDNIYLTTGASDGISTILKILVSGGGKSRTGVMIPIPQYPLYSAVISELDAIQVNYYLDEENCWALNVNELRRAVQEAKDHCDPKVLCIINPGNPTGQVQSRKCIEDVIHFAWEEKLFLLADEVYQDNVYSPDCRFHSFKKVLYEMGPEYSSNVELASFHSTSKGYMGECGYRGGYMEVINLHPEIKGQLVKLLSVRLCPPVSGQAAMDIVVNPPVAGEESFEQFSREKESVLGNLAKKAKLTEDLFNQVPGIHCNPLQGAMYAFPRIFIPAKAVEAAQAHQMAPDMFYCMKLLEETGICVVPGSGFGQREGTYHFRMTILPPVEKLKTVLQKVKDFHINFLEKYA
row,SMILES,Potency
1,COc1ccccc1N1CCCc2ncc(C(=O)Nc3cccnc3)cc21,"inconclusive [inhibitor, single point]"
2,Oc1ccccc1CN1C[C@H](O)C[C@H]1c1nc(-c2ccccc2)no1,inactive
3,CNc1nccc(N2CCC(CC(=O)N(C)CCCc3c(C)nn(C)c3C)CC2)n1,inactive
4,COc1ccc(CCC(=O)N2CC(F)(F)C[C@H]2c2nc(C)no2)cc1,"inconclusive [inhibitor, single point]"
5,O=C(NCCCN1CCOCC1)C1CCN(C(=O)N2CC3CC(C2)[C@H]2CCCC(=O)N2C3)CC1 (some centres undefined),"inconclusive [inhibitor, single point]"
6,CN1CC(=O)N(C2CCCCC2)Cc2c(NC3CCCC3)ncnc21,"inconclusive [inhibitor, partial curve]"
7,O=C(c1cccc(OC2CN(Cc3cccc(F)c3)C2)c1)N1CCOCC1,inactive
8,COCCNC(=O)C1CC(c2ccccc2)CN(C(=O)c2ccc(OC)c(OC)c2)C1 (centres undefined),"inconclusive [inhibitor, partial curve, poor fit]"
9,O=C(NCC1CC1)c1cccc(OC2CN(C3CCCCC3)C2)c1,inactive
10,O=C(NCC(F)F)C1CCCN(Cc2cccc(-c3cccs3)c2)C1 (centres undefined),inactive
11,CNc1cc(C2CC(NS(=O)(=O)c3ccc(F)cc3)C2)nc(COC)n1 (centres undefined),"inconclusive [inhibitor, partial curve, poor fit]"
12,C[C@H](NC(=O)/C(C#N)=C/c1ccc(O)c(O)c1)c1ccccc1,"inconclusive [inhibitor, single point]"
13,CC(C)CCN1CCC(N2CCN(S(=O)(=O)c3ccc(CC(C)C)cc3)CC2)C1=O (centres undefined),"inconclusive [inhibitor, partial curve, poor fit]"
14,N#Cc1ccc(-c2c(-c3ccccc3)ncn2CCNc2cccnc2)cc1,"inconclusive [inhibitor, single point]"
15,COc1ccccc1C(=O)N1CCC2(CC1)OC(=O)N(Cc1ccccc1C#N)C2(C)c1ccccc1 (centres undefined),inactive
16,COc1ccc(C(=O)Nc2nc3c(s2)C[C@@H]2[C@](C)(CO)[C@H](O)CC[C@@]2(C)[C@@H]3CC(=O)NCc2ccccc2)cc1,inactive
17,COc1cncc(Nc2cnc3ccc(-c4cccc(CO)c4)nn23)c1,"inconclusive [inhibitor, partial curve, poor fit]"
18,COc1ccc(-c2coc3cc(O)cc(O)c3c2=O)cc1,inactive
19,O=C(N[C@@H]1CN(C(=O)Nc2ccc(F)cc2)CCC[C@H]1O)c1ccc(OCCN2CCCC2)cc1,"inconclusive [inhibitor, full curve, poor fit]"
